Assay results reported in patent publication US10525103B2, “Combined use of a vector encoding a modified receptor and its exogenous agonist in the treatment of seizures” (UCL BUSINESS LTD, priority 2014, dated 2020).

System: rats expressing ArchT instead of hM4Di
Type: in vivo, rat
Settings: ArchT virus

With C[N+]1([O-])CCN(C2=Nc3cc(Cl)ccc3Nc3ccccc32)CC1 [CNO, clozapine-N-oxide] the “three measures of seizure severity, vehicle vs CNO trials” value (intracortical picrotoxin) was “no significant differences” and the “three measures of seizure severity, vehicle vs CNO trials” value (intracortical pilocarpine) was “no significant differences”.

Read-outs that look alike come from different tables or passages of the source.
